Each block holds one binder with its values, some of them ahead of it.
Molecular target: insulin-like growth factor-1 receptor (IGF-1R) (human) (UniProt P08069)
Experiment: cell-based or functional assay

UniProt P08069, sequence (P08069 31-1367): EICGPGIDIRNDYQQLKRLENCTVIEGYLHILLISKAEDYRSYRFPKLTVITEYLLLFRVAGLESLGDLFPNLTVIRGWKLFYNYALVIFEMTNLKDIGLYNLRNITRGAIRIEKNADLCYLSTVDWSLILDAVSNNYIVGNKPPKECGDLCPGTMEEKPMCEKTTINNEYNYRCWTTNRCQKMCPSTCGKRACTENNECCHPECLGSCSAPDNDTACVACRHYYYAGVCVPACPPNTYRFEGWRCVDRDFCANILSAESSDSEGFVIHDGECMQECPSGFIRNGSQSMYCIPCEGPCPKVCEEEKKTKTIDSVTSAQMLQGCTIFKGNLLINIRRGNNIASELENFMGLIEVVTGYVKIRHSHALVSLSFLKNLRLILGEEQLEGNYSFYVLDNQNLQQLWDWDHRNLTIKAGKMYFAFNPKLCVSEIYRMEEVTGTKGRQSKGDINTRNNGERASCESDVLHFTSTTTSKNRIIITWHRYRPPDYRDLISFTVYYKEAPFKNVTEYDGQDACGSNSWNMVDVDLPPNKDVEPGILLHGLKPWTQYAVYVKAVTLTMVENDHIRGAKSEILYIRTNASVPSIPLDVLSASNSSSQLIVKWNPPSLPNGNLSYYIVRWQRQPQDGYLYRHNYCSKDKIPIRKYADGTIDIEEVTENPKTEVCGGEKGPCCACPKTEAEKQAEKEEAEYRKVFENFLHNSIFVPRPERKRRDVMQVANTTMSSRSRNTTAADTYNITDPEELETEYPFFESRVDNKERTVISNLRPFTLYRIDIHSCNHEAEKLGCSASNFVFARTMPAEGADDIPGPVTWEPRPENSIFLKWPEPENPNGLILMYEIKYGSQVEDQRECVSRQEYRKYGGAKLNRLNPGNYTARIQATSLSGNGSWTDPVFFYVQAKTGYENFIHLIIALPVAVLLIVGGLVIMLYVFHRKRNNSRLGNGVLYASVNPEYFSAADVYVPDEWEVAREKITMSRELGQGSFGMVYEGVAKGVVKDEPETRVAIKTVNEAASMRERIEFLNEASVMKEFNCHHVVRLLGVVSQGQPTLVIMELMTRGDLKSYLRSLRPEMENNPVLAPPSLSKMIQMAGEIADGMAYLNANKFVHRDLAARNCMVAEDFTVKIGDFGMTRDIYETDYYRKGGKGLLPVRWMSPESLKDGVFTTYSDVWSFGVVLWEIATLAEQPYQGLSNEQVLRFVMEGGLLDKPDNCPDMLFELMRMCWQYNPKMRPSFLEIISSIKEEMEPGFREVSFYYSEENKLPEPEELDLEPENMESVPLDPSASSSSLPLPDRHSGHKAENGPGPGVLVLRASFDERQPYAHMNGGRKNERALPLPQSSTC

Compound Potency (IC50; µg/mL): inhibition of IGF-1 ligand stimulated autophosphorylation of IGF-1R in A431 cells, phospho-IGF-1R ELISA: 0.09 µg/mL
Conjugate Potency (IC50; µg/mL): inhibition of IGF-1 ligand stimulated autophosphorylation of IGF-1R in A431 cells, phospho-IGF-1R ELISA; degree of substitution 3.8 DOTA/mAb: 0.07 µg/mL
Conjugate Potency (IC50; µg/mL): inhibition of IGF-1 ligand stimulated autophosphorylation of IGF-1R in A431 cells, phospho-IGF-1R ELISA; degree of substitution 4.9 DOTA/mAb: 0.1 µg/mL
Conjugate Potency (IC50; µg/mL): inhibition of IGF-1 ligand stimulated autophosphorylation of IGF-1R in A431 cells, phospho-IGF-1R ELISA; degree of substitution 6.4 DOTA/mAb: 0.13 µg/mL
Conjugate Potency (IC50; µg/mL): inhibition of IGF-1 ligand stimulated autophosphorylation of IGF-1R in A431 cells, phospho-IGF-1R ELISA; degree of substitution 7.4 DOTA/mAb: 0.14 µg/mL
B1: Compound C-HuMIGF-1R (antibody)
light: DVVMTQTPLSLPVSLGDPASISCRSSQSIVHSNVNTYLEWYLQKPGQSPRLLIYKVSNRFSGVPDRFSGSGAGTDFTLRISRVEAEDLGIYYCFQGSHVPPTFGGGTKLEIKRTVAAPSVFIFPPSDEQLKSGTASVVCLLNNFYPREAKVQWKVDNALQSGNSQESVTEQDSKDSTYSLSSTLTLSKADYEKHKVYACEVTHQGLSSPVTKSFNRGEC
heavy: QVQLVQSGAEVVKPGASVKLSCKASGYTFTSYWMHWVKQRPGQGLEWIGEINPSNGRTNYNQKFQGKATLTVDKSSSTAYMQLSSLTSEDSAVYYFARGRPDYYGSSKWYFDVWGQGTTVTVSS[human IgG1 constant region omitted here]
modifications: Compound C (DOTA-GA with PEG3 linker, TFP ester) conjugated to the antibody, sites not stated; no radiometal; batches with 1.9-7.4 DOTA per mAb

Compound Potency (IC50; µg/mL): inhibition of IGF-1 ligand stimulated autophosphorylation of IGF-1R in A431 cells, phospho-IGF-1R ELISA: 0.13 µg/mL
B2: [^225Ac]-Compound C-HuMIGF-1R (antibody)
light: B1 light
heavy: B1 heavy
modifications: Compound C (DOTA-GA with PEG3 linker, TFP ester) conjugated to the antibody, sites not stated; chelate loaded with 225Ac
